This is an account of results in publication PMC9911399, “Two distinct binding modes provide the RNA-binding protein RbFox with extraordinary sequence specificity”.

B1: GGACCUG (DNA:RNA)
RNA: GGGAGACCGGAAUUCAGAUUGUCCGGACCUGUUAAAUCCCGUCGUAGCCACCA
DNA 1: CAATCTGAATTCCGGTCTCCC
DNA 2: TGGTGGCTACGACGGGATT
B2: UGCGUGG (DNA:RNA)
RNA: B1 RNA with G25U, A27C, C28G, C29U, U30G
DNA 1: CAATCTGAATTCCGGTCTCCC
DNA 2: TGGTGGCTACGACGGGATT
B3: ACGUAUG (DNA:RNA)
RNA: B1 RNA with G25A, G26C, A27G, C28U, C29A
DNA 1: CAATCTGAATTCCGGTCTCCC
DNA 2: TGGTGGCTACGACGGGATT
B4: CGAGUGG (DNA:RNA)
RNA: B1 RNA with G25C, C28G, C29U, U30G
DNA 1: CAATCTGAATTCCGGTCTCCC
DNA 2: TGGTGGCTACGACGGGATT
B5: GGCUACA (DNA:RNA)
RNA: B1 RNA with A27C, C28U, C29A, U30C, G31A
DNA 1: CAATCTGAATTCCGGTCTCCC
DNA 2: TGGTGGCTACGACGGGATT
B6: CGCUCUG (DNA:RNA)
RNA: B1 RNA with G25C, A27C, C28U
DNA 1: CAATCTGAATTCCGGTCTCCC
DNA 2: TGGTGGCTACGACGGGATT
B7: ACGGAAG (DNA:RNA)
RNA: B1 RNA with G25A, G26C, A27G, C28G, C29A, U30A
DNA 1: CAATCTGAATTCCGGTCTCCC
DNA 2: TGGTGGCTACGACGGGATT
B8: CGAAUUG (DNA:RNA)
RNA: B1 RNA with G25C, C28A, C29U
DNA 1: CAATCTGAATTCCGGTCTCCC
DNA 2: TGGTGGCTACGACGGGATT
B9: AAGUUCC (DNA:RNA)
RNA: GGGAGACCGGAAUUCAGAUUGUCCAAGUUCCUUAAAUCCCGUCGUAGCCACCA
DNA 1: CAATCTGAATTCCGGTCTCCC
DNA 2: TGGTGGCTACGACGGGATT

Numbering of substitutions follows the chain as printed; changes in the protein carry UniProt numbers. Some of the results follow.

For the assay, the target named is T1, RBFOX1 RRM RbFoxmut (Fox-RRM*) (Homo sapiens, UniProt Q9NWB1 109-208, R118D;E147R;N151S;E152T).
T1 sequence: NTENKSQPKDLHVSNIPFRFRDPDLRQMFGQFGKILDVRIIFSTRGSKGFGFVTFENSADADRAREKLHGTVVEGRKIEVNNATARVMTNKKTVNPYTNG
Briefly: EMSA; HiTS-Eq, 1 nM pool, 10 min; buffer printed only for the single-RNA assays: 10 mM Tris pH 7.5, 150 mM NaCl, 3.4 mM EDTA, 0.001% NP-40, 30 C. Particulars: tags: His6 N-terminal (pET28a); label: 5' 32P. In outline: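 A pool of RNA with 7 randomized nucleotides, 5′-radiolabelled and with DNA-annealed flanks, was equilibrated at 1 nM for 10 min in 50 µL with purified RbFox RRM, wild type or mutant, across increasing protein concentrations. Free RNA was separated by 8% native PAGE, excised, reverse-transcribed, barcoded by PCR and sequenced. Relative association constants were obtained from read-count changes of each RNA species versus the control reaction and normalised to the cognate motif.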
As for B1, the binding signal is 0.132 KA relative to UGCAUGU. As for B2, the figure is 0.138 KA relative to UGCAUGU. Consider B3, for which the binding signal was 0.385 KA relative to UGCAUGU. With B4, the binding signal was 0.0605 KA relative to UGCAUGU.

For the molecule B5, the binding signal was 0.0753 KA relative to UGCAUGU. To B6 belongs 0.0697 KA relative to UGCAUGU.

In the case of B7, the binding signal was 0.0981 KA relative to UGCAUGU. As for B8, the figure is 0.141 KA relative to UGCAUGU; as for B9, 0.0389 KA relative to UGCAUGU.
